According to the supplement of paper PMC11417369:
± gives the standard deviation of the averaged measurements. The list shows a part of the results.

tested on: PfAP2-I AP2 domain 3 (GST-tagged); assay: gcPBM binding intensity (ln(normalized median fluorescence intensity)); higher = stronger DNA binding
How it was run: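 Alexa488 anti-GST antibody, scanned at 488 nm, detected GST-tagged P. falciparum DNA-binding domains that had been expressed in E. coli and incubated for 1 h on an Agilent 4 × 180k array. The array carried primer-extended double-stranded 36-bp intergenic genomic probes and negative controls. Binding intensity is the highest Masliner-normalised natural-log median intensity across replicate spots of either orientation of each probe.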

Sequence	gcPBM binding intensity (ln)
TTAAGATCCTAAAAAACACACAATTGCGAATAATAA [CACACA_site6005]	7.68 ± 0.73
ATATCATAAAAAATGTGTACATATATGAACATATAA [XGTACX_site2239]	7.8 ± 0.3
GATATATATGTTCACACACACATGGAAATATATATA [CACACA_site4371]	8.01 ± 0.62
GGAAATTAACAGAACACAATGTAACAATTTCTAACA [CACACA_negctrl_site1250]	7.54 ± 0.74
TTTCTTCTTCAATGTTGTACTTTTCTCTTTTCTTAA [XGTACX_site1017]	7.96 ± 0.61
GTTCATAAAAATTTTTGTACCCATAAAATATTCCTC [XGTACX_site8611]	8.07 ± 0.58
TTTTTTTTTTTTAATTGTACTTATTAAAAAAAGCAA [XGTACX_site8713]	8.05 ± 0.64
GTAGGTGTTTTTGGTTGTACATATAAATATATATAC [XGTACX_site3380]	8.28 ± 0.45
GAAGTTTTCTTAAAGATGCACTTTTTAAAAATAAAA [GTGCAC_site9941]	8.94 ± 0.25
TCTTCTTTTTTTTTTTTGTATTATTATAAATATTAT [CACACA_negctrl_site1668]	7.62 ± 0.37
AAGATAAAATGATGCACACAAAAGGGTGTAATATAT [CACACA_site1706]	9.22 ± 0.29
TTTTTTTTTTTTAATGCACACAATATATAATATGTA [CACACA_site3694]	11.2 ± 0.4
TTTTTTTTTTTTCAATCACACATGTTTTAATTATTT [CACACA_site5532]	8.11 ± 0.86
TGTAATAATATTTATGTGCACATATATTAAACTATA [GTGCAC_site9584]	9.88 ± 0.057
TCATTTCACAGACACACACACACAAGATATTTCCTT [CACACA_site7774]	8.02 ± 0.57
TGTACGTTTTATAACACACACACAAAAAAAAAAAAA [CACACA_site3875]	8.21 ± 0.57
TATGCACTTTAGGGCAGTACGTCAACATTATCTTTA [XGTACX_site3382]	8.38 ± 0.19
CCTCATACGAAATATAAACACACATACAATAAATAA [CACACA_site8620]	7.78 ± 0.65
TGTTAAAATTATTTGGTGCACTTGTTTTACCTTATT	10.8 ± 0.48
TATATTTATTATAACACACACATATAAATATTATAG [CACACA_site6726]	7.95 ± 0.48
ATAAATTTTTTTTTTTTTTTTTTTTTTTTTTTTTTT [CACACA_negctrl_site508]	10.09 ± 0.014
ATTTTTTTCATAGACACACACAATATATCTGTTTCC [CACACA_site3023]	8.11 ± 0.81
ATATTATTATATATAGTGCATATTATTATTTTTATT	10.2 ± 0.42

Sequence	gcPBM binding intensity (ln)
CATTATTCTTTTAATATACACACTTTGTCTTTTCGC [CACACA_site2762]	7.94 ± 0.85
TCTCATAGTAAACACACACACACACCCACATATATA [CACACA_site5034]	8.24 ± 0.26
AAATGAACATATATGTGTACTTATATTTTTCTAAAT [XGTACX_site3388]	7.72 ± 0.35
ATATATTTTTCTTTACGTACGAAGCAAAATAACATT [XGTACX_site8145]	7.83 ± 0.45
AAAAAAAAAAAAAACACATGCAGAAGAAAAAAAATA [TGCATGCA_site545]	8.16 ± 0.62
AATTGTTTTTTTTTCTTATTTTATGTTATACACACA [TGCATGCA_negctrl_site380]	7.95 ± 0.63
TCATTAAATGTTTAGGTGCATACTTTAATTTTTAAT [GTGCAC_site9906]	9.32 ± 0.12
AAAAAAAAAAAAAAAGTGCATATATAAATATTGTAT [GTGCAC_site9459]	10.1 ± 0.18
ATTATATAAGTACACAAACAAGTATGAGATTCAAAA [GTGCAC_negctrl_site119]	7.96 ± 0.16
TGTTTTAAACTAATTTGTACATAGTTATTTATATTT [XGTACX_site7196]	7.49 ± 0.48
CCATATATTTGGTATAGTACTTTTTATTTTATTTCA [XGTACX_site8933]	7.97 ± 0.25
CACAAATATATACATACACACATATATACACATATA [CACACA_site8024]	7.83 ± 0.6
AAAACGCAGTTTAATATACACACCAAAAAAAAAAAA [CACACA_site3036]	7.92 ± 0.69
TTTGAGATGTGGTGTACACAAAATTAGGTACACATC [CACACA_site5773]	8.32 ± 0.51
AAATATTATAATAATTGTACTATATATACAGTTATT [XGTACX_site1963]	7.58 ± 0.49
TAAAATATGTCATGGGTGCTTCTTTTTATACCTATG [GTGCAC_site9888]	8.49 ± 0.38
AAAAAAAAAAAATTATGTACATATTATATATAATGG [XGTACX_site2885]	7.77 ± 0.45
ATATATATATATTTATGTACGCATTTATAGACGTAG [XGTACX_site6031]	9.18 ± 0.13
TGTTTTTAAAAATATACACACACAGATATTATATAT [CACACA_site8162]	7.76 ± 0.67
TTTTATATTTATTTTTGTACATAAATGATCTCAAAT [XGTACX_site7768]	7.79 ± 0.49
ACTTAAATAATACATACACACATGTACTTACAGAAA [CACACA_site8458]	8.05 ± 0.55
TATGATAACCATAATTGTACAGAATGAAACGTAAAT [XGTACX_site1653]	8.13 ± 0.74
AAGTTTTTTTTTATCACACACAAAAAAAAAAATATA [CACACA_site1362]	7.82 ± 0.4

Sequence	gcPBM binding intensity (ln)
AAAAAATGAAAAAACTGTACGCAATTTTGTTTTTAT [XGTACX_site2299]	7.77 ± 0.41
AAAAAAAAAAAAAAGTGTACCTTCAAAATAATATTG [XGTACX_site2844]	7.99 ± 0.61
ATAAATATAAAACACACACACATATTATATATATAT [CACACA_site3064]	9.12 ± 0.29
TCTTTCCTTATTAAAACACACAAATACATTATTTAA [CACACA_site2147]	7.84 ± 0.46
CCTTTTTCTACTTTCTCACACATATTAAGAATTATA [CACACA_site5621]	8.29 ± 0.51
CTATATATAACCCATGTGCACTTTTTATGTACAATA	10.24 ± 0.092
TGGGAAAAAATATATGCACACCCCCCAAAAAAAAAA [CACACA_site8696]	11.5 ± 0.52
AATTCTTTATTATATGCACACGTACATATAATATAT [CACACA_site8621]	9.27 ± 0.18
AAAAAATGTTATAAAAGTACATAATTTATCTACCAT [XGTACX_site3035]	7.46 ± 0.47
TTTTTATATAATTTAACACACATTTCATATAAAAAA [CACACA_site3103]	8.07 ± 0.42
ATGTGAAAATAAGACACACTCAAAAGGTTTATATTA [CACACA_site4595]	7.67 ± 0.43
ATATACTGTATGAAAGCACACATACTTATTACTAAC [CACACA_site9384]	8.19 ± 0.68
TAACTTTGGAGGAGCTGTACGATTATTTTGATCCTT [XGTACX_site2514]	7.64 ± 0.63
AAAAAATTTCAAATAACACACACTAATATAAATATG [CACACA_site6783]	7.74 ± 0.52
TTTAAAAAATAATATTGTACTATTCTCCCAATTTCT [XGTACX_site7079]	7.24 ± 0.51
ATACATTCTAATACGTGTACATATATATATATATAT [XGTACX_site1881]	9.41 ± 0.59
AATAATATTAACACACGTACAAAAGCAAACAACCAA [XGTACX_site7410]	8.5 ± 0.49
TTTATATTATTATATCTTATTAATTATTTATCATTT [TGCATGCA_negctrl_site73]	7.28 ± 0.58
ATAAAACAAAAACACACACACATACACAAAAAAAAA [CACACA_site3848]	8.31 ± 0.43
CATCTTAAATAAGAACGTACATTTTTTTTGATGAGA [XGTACX_site3462]	7.46 ± 0.44
AAGACAAAACAAAGAAGTACATATATATATATATAT [XGTACX_site4067]	9.45 ± 0.38
GGAGACTTTGTACAAACACACACATGAACACAATAT [CACACA_site8376]	8.14 ± 0.61
TCTTCACCACGTGGAAGTACATAAAAAGATACACAA [XGTACX_site4747]	8.26 ± 0.63

Sequence	gcPBM binding intensity (ln)
ATGTATATATTTATGTGTACTTAAATTTTTTTTTGT [XGTACX_site8179]	7.86 ± 0.16
TTTTAATATATAGAGTAACAAATTTGTCTATTAATA [CACACA_negctrl_site1495]	7.5 ± 0.58
TAATTTAAAAATGAACATATATATGTATGTAAATAT [TGCATGCA_negctrl_site135]	8.03 ± 0.61
TATACCACCCGATATACACACTTGTAGACATCTTTT [CACACA_site4268]	7.96 ± 0.47
TATGGGTTTATATAGGTGCAATATATGTATATATAA	11.2 ± 0.59
TATATAGTTTATATTTGTACATATAGACATTTATAA [XGTACX_site6414]	7.53 ± 0.45
ACAAAACTCTTTAATTGTACAAATATAATATAAAAA [XGTACX_site5690]	7.74 ± 0.63
AGCAATATTTATTAAAGTACGTAAAAAAAATTCTCA [XGTACX_site6550]	7.6 ± 0.48
AACCATTGGGAAAGGGTGCACATATATATATATATA	10.8 ± 0.11
ATATATATATAATATTGTACATAGTAGACATCACAC [XGTACX_site4649]	8.89 ± 0.11
TCTTATTATAAAAGGAGTACATCAATTAGATGTTCC [XGTACX_site8465]	7.41 ± 0.53
CAAAGCATAGTATGATGTACAAATGTTCCTATAATA [XGTACX_site8642]	7.48 ± 0.65
TTATGTTTATACACTACACACATTATTCATAAAAAA [CACACA_site4637]	8.11 ± 0.3
TATATATGTATAAGAGTGCATATGCATATATGTATA [GTGCAC_site9692]	9.85 ± 0.014
TAAAATATGGAAATCACACATTTATTAAAATATATA [CACACA_site4623]	7.2 ± 0.4
GATTATATATTAAAAAGTACTTTATAAATACTTCTA [XGTACX_site8992]	7.72 ± 0.47
CATATACATTGTATATGTACATATATATATATATAT [XGTACX_site3772]	9.21 ± 0.59
TGATGCAAAATATATACACACATATATATATATATA [CACACA_site3052]	9.26 ± 0.32
TAATATACTTAATACACACACGAATATTTATAAATA [CACACA_site6675]	7.82 ± 0.37
GATTCATCTAAACACCGTACATATTATATATATATA [XGTACX_site6030]	9.035 ± 0.078
AAACTCAACTTATATACACACAATCTTTTTTTTTTA [CACACA_site29]	7.57 ± 0.69
